# Measured values: PubChem BioAssay AID488969 (Vanderbilt High Throughput Screening Facility, 2010)
# In all, about 110,000 compounds were measured (“z-score”: median about -0.1, highest 2% from about 2 on). This is one part of the list. The source made the active and inactive calls.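 The calls were made as follows: active = z-score in the third read window above 3 or below -3; inactive = the rest.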
# Molecular target: Metabotropic glutamate receptor 8 (Rattus norvegicus) (UniProt P70579)
# Assay: mGluR8 Gi/Go-coupled signaling modulation – cell-based, rat, thallium flux, HTS, primary screen (AID 488969)
# Settings: HEK293 rat mGluR8, GIRK (G protein-gated inwardly rectifying potassium channel) thallium flux, FluoZin2; at 10 µM; stronger effect = higher value; submaximal glutamate (EC20) added with thallium
# UniProt P70579, sequence (P70579 whole entry, looked up): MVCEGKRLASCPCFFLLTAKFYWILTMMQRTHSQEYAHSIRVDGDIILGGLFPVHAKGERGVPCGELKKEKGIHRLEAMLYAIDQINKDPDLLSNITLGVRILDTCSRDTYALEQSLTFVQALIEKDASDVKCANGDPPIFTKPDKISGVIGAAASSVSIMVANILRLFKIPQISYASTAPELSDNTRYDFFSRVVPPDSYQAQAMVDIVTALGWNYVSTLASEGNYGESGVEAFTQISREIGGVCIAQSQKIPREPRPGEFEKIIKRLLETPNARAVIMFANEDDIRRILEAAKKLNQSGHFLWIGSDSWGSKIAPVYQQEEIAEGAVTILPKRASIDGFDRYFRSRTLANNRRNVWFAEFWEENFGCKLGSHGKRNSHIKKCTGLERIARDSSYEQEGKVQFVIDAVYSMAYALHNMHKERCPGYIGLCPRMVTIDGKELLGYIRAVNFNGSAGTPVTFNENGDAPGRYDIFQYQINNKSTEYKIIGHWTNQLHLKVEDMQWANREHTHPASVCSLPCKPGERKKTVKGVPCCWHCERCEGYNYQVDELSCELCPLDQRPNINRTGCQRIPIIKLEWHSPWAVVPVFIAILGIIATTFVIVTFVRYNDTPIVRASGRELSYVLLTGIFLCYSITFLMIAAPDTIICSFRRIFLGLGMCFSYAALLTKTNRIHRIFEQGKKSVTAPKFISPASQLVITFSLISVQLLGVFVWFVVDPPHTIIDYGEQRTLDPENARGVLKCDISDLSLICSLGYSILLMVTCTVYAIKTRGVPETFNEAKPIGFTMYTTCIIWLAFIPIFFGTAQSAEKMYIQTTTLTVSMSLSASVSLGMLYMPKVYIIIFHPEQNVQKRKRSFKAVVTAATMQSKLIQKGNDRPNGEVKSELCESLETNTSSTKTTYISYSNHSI
row,Compound,z-score
1,O=C(NC1C2CC3CC(C2)CC1C3)C1CC1 (stereo unspecified),0.767
2,CCOC(=O)N1CCC(NC(=O)c2cc3ccccn3n2)CC1,-0.177
3,CCC(C(=O)N1CCc2cc(OC)c(OC)cc2C1)c1ccccc1 (stereo unspecified),-0.523
4,O=C(c1cccc(Br)c1)c1cn(-c2ccccc2)nc1C(=O)c1ccccc1,-0.106
5,Cc1ccc(C(=O)N2CCCC2)cc1S(=O)(=O)Nc1ccccc1,-0.144
6,CCOc1ccc(Cc2c(Cl)nc(SC)nc2OC)cc1,-0.264
7,C=CCNC(=O)c1onc(CSc2cccc(OCC)c2)c1C(=O)O,-0.301
8,Nc1nc(NCCO)nc(NCC2CCCO2)c1[N+](=O)[O-] (stereo unspecified),-0.192
9,O=C(NCc1ccccc1)C1(c2ccccc2)CCN(S(=O)(=O)c2ccccc2)CC1,-0.383
10,O=C(Nc1ccc(O)cc1)C1CCCO1 (stereo unspecified),0.459
11,COc1ccc(C(=S)Nc2ccc(N(C)C)cc2)cc1,0.0803
12,CN(c1ccccc1)S(=O)(=O)c1ccc(C(=O)OCC(=O)N2CCOCC2)cc1,0.719
13,CCOC(=O)CSc1nc(C)cc(C)c1C#N,-0.43
14,Cn1c(-c2cc3ccc(OC(=O)C(C)(C)C)cc3oc2=O)nc2ccccc21,-0.174
15,CC1CCCCC1n1c(=S)[nH]c2ccccc2c1=O (stereo unspecified),active: 16.2
16,CN(C)C(=O)CSc1nnc(Cc2ccc([N+](=O)[O-])cc2)o1,-0.065
17,CC(C)Oc1ccc2c(c1)OC(c1ccccc1)(C(F)(F)F)NC2=O (stereo unspecified),-0.285
18,COc1ccc(S(=O)(=O)n2nc(OC(=O)c3cccs3)cc2N)cc1,-0.212
19,CN(C)CCCN(CCCNC(=O)/C=N/O)Cc1ccccc1,-0.107

row,Compound,z-score
1,Cn1c(Cn2c(=O)sc3ccccc32)nnc1SCc1ccccc1F,-0.235
2,CCOC(=O)C1CCCN(C(=O)CCc2ccccc2)C1 (stereo unspecified),0.612
3,O=C(NNc1ccc([N+](=O)[O-])cc1)C1CC2CCCC(C1)C2=O (stereo unspecified),-0.109
4,COc1ccccc1NC(=O)c1ccccc1NS(C)(=O)=O,-0.0773
5,CCOC(=O)CCC(=O)Nc1cccc([N+](=O)[O-])c1,0.0456
6,CC(=O)Nc1cccc(Cn2cccn2)c1,-0.044
7,CC[C@H](C)[C@H](NC(N)=O)C(=O)Nc1ccc(C)cc1,0.201
8,O=C(Cc1cccs1)N1CCN(c2ccc(F)cc2)CC1,0.065
9,Cc1ccc(C(=O)NC(=S)Nc2cccc3nsnc23)cc1,1.1
10,COc1ccc(N(C(=O)c2cccc([N+](=O)[O-])c2)S(=O)(=O)c2ccc3c(c2)n(C)c(=O)n3C)cc1,-0.184
11,CCNC(=O)c1ccccc1NC(=O)c1cccc(S(=O)(=O)N2CCC(C)CC2)c1,-1.17
12,CC1CCN(S(=O)(=O)c2cccc(C(=O)N(C)C3CCS(=O)(=O)C3)c2)CC1 (stereo unspecified),-0.196
13,CC(C)C(NC(=O)c1ccc(C(C)(C)C)cc1)C(=O)OCC(=O)NC(=O)Cc1ccccc1 (stereo unspecified),-0.491
14,O=C(Nc1ccc(Oc2ccc(NC(=O)c3ccco3)c(NC(=O)c3ccco3)c2)cc1)c1ccco1,-1.59
15,Cc1ccc(C2CC(c3ccccc3OC(F)F)Nc3ncnn32)cc1 (stereo unspecified),0.677
16,CC(C)(C)C1CCc2c(sc(N)c2C(N)=O)C1 (stereo unspecified),0.466
17,O=C(COc1ccc(-c2ccccc2)cc1)N/N=C/c1ccccc1Br,0.735
18,COC(=O)C(C)n1cnc2c(nnn2-c2ccc(OC)cc2)c1=O (stereo unspecified),0.0276
19,CCOc1ccc(C(=O)NC(=S)Nc2ccccc2OC)cc1[N+](=O)[O-],-0.13

row,Compound,z-score
1,Cc1ccc(-n2nc3ccc(NC(=O)/C=C/c4ccco4)cc3n2)cc1C,-0.0621
2,O=C(O)c1ccc(S(=O)(=O)c2ccc3c(c2)C(=O)N(Cc2ccco2)C3=O)cc1,0.095
3,Cc1cc(N(CN2CCCC2=O)C(=O)c2ccccc2)no1,-0.368
4,Cn1c(N2CCCCC2)nc2c1c(=O)n(Cc1cccc(Br)c1)c(=O)n2C,-0.647
5,CC1(NC(=S)NCCO)CCS(=O)(=O)C1 (stereo unspecified),-0.248
6,N#Cc1ccccc1NC(=O)COC(=O)c1ccc2c(c1)OCCO2,0.88
7,O=c1c2nnn(Cc3ccccc3)c2ncn1-c1ccccc1,-0.0489
8,CCOC(=O)CSc1nnc(-c2ccccc2)c(=O)[nH]1,-0.438
9,Cc1sc2ncnc(N[C@@H](CCC(=O)O)C(=O)O)c2c1C,0.408
10,N#CC1=C(N)Oc2cc(N)ccc2C1c1ccsc1 (stereo unspecified),-2.64
11,Cc1ccc([N+](=O)[O-])cc1N=C(c1cccc(Br)c1)N1CCOCC1,-0.401
12,CC1=CC(C)C2(CO)COC(c3cccnc3)C1C2C (stereo unspecified),-0.00616
13,CCN(CC)CCN1C(=O)Cn2c(C)c(C)c3cccc1c32,0.718
14,CC(=O)N(C)c1ccc(NC(=S)Nc2ccccc2)cc1,-0.008
15,Cc1c(CN(C)C(=O)c2ccc(Br)o2)cnn1C,0.01
16,CC(C(=O)NC1CCCC1)N(C(=O)CS(=O)CC(=O)Nc1ccc(F)cc1)c1ccc2c(c1)OCCO2 (stereo unspecified),-0.0988
17,Cc1cc(C(=O)N/N=C\c2ccc(COc3ccc([N+](=O)[O-])cc3)o2)ccc1[N+](=O)[O-],-0.167
18,Cc1ccc(S(=O)(=O)Nc2ccc(S(=O)(=O)Nc3ncccn3)cc2)cc1,-0.379
